According to PMC4336329 (PLoS ONE, 2015):
About 2,200 (0.71%) of roughly 310,000 compounds showed an effect of 50% or more. The effect is printed as a negative number. Some of the results follow.

target: human ether-à-go-go-related gene (hERG) potassium channel (human, UniProt Q12809); assay: primary screen, population patch clamp on CHO cells stably expressing hERG
Sequence (Q12809 whole entry, looked up): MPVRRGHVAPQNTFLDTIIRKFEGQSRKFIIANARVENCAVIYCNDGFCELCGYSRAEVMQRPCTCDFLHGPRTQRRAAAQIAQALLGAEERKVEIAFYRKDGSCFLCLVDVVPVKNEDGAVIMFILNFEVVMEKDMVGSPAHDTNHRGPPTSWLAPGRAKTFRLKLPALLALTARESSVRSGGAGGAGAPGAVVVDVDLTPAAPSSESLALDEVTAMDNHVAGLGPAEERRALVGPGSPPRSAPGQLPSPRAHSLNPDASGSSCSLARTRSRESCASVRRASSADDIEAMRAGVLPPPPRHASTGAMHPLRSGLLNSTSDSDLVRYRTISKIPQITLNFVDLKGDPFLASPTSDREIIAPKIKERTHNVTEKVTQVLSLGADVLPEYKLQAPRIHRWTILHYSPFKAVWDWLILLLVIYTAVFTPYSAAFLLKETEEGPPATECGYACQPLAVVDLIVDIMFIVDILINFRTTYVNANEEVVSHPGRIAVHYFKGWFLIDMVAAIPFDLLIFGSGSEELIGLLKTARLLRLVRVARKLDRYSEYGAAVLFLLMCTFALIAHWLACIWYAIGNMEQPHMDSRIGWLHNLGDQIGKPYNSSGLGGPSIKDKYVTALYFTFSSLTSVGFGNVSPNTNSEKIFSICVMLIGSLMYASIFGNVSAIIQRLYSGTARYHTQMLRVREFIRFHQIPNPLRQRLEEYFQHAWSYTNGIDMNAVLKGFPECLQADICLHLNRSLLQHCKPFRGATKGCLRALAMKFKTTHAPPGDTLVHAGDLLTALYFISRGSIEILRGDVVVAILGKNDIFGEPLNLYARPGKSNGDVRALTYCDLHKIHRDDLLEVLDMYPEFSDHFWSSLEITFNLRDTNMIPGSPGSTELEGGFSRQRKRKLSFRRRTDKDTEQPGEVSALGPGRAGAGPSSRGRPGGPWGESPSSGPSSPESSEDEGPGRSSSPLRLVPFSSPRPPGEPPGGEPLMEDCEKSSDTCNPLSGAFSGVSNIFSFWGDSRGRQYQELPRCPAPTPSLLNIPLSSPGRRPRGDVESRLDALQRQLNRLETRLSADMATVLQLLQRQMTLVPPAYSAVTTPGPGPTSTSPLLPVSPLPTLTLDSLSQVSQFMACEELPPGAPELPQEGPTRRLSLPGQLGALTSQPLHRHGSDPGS

Row | SMILES | hERG current change (%, negative = inhibition) at 1uM [%]
1 | Cc1ccc(-c2noc(CCC(=O)NCc3ccccc3CN3CCOCC3)n2)cc1 | 6.61
2 | CC1COC(c2cccn2Cc2ccccc2Cl)=N1 (stereo not drawn) | 5.84
3 | COc1ccc(NC(C)=O)cc1NC(C)C(=O)Nc1cccc2ccccc12 (stereo not drawn) | 8.54
4 | CSc1nc(Oc2ccc(=O)n(C)n2)nc(N(C)C)n1 | 11.7
5 | O=C(NNC(=O)C1CCC(C(=O)NNC(=O)c2cccs2)CC1)c1cccs1 (stereo not drawn) | 7.27
6 | COc1ccccc1-c1cc(C(=O)N/N=C\c2cnn(C)c2C)c2ccccc2n1 | 6.35
7 | CSCCC(NC(=O)COc1ccccc1)C(=O)N(C)Cc1ccc(Cl)cc1Cl (stereo not drawn) | -3.56
8 | COc1ccc(CCNC(=O)Cn2cnc3c(cnn3-c3ccccc3Cl)c2=O)cc1OC | 4.16
9 | Brc1ccc(OCc2nnnn2-c2ccccc2)cc1 | 18.9
10 | COc1cc(C)ccc1OCc1cc(C(=O)NCCN2CCOCC2)no1 | 12
11 | Cc1c(C(=O)N2CCCc3ccccc32)sc2nc(-c3ccccc3)cn12 | 6.54
12 | CCOC(=O)Oc1ccc2oc(C)c(C(=O)OCCOC)c2c1 | 5.12
13 | O=C1CS/C(=N/N=C2CCCC2)N1 | 15.8
14 | Cc1ccc(N2CN(CCC3=CCCCC3)CNC2=S)cc1 | 15.4
15 | O=C(NCCCNC1CCCCC1)c1ccc(/C=N/O)nc1 | 3.46
16 | O=C(c1ccccc1)N1N=C(c2ccccc2)CC1c1ccc2nccnc2c1 (stereo not drawn) | 15.4
17 | C=CCNC(=S)NCCCCC1NC(=S)N(CC=C)C1=O (stereo not drawn) | 13
18 | CC(C)(Oc1ccc(Cl)cc1)C(=O)N1CCN(c2ccccn2)CC1 | -1.81
19 | O=C(COc1ccccc1)Nc1ccc(C(=O)N2CCCC2)cc1 | 13.6
20 | CCOC(=O)C(=N/O)/C(C)=N/NC(=O)C(=O)Nc1ccc(Cl)cc1 | 8.64
21 | COc1ccc(OC)c(CNC(=O)CCn2c(=O)c3cccn3c3ccc(F)cc32)c1 | -39.5
22 | COc1ccccc1-c1nnc(-c2ccc(N3CCOCC3)cc2)o1 | 11.3
23 | O=C(NCCCN1CCOCC1)c1ccccc1NS(=O)(=O)c1cc([N+](=O)[O-])ccc1Cl | 4.47

Row | SMILES | hERG current change (%, negative = inhibition) at 1uM [%]
24 | Cc1ccccc1C(=O)NC1CCN(C(=O)Nc2ccccc2Cl)CC1 | 23.7
25 | Cc1nc2c(C)cccn2c1/C(O)=C1\C(=O)C(=O)N(CCN2CCOCC2)C1c1ccncc1 (stereo not drawn) | 9.88
26 | O=C(COn1nnc2ccc(Cl)cc21)NCc1ccccc1 | 0.51
27 | Cc1ccc(C(=O)NCC(=O)Nc2ccncc2)s1 | 5.61
28 | O=C(NCc1cccnc1)Nc1ccc([N+](=O)[O-])cc1 | 12
29 | Cc1ccccc1CN1[C@@H]2c3ccccc3C[C@@H]2OCCS1(=O)=O | 5.21
30 | CC12CN3CC(c4ccccc4)(CN(C1)C31CCCCC1)C2=O | 9.96
31 | CC1CC(=O)N(Cc2ccccc2)c2ccccc2N1C=O (stereo not drawn) | 5.48
32 | CN1CCc2c([nH]c3ccccc23)C1 | 16.6
33 | Cc1cccc(C(=O)OCC(=O)NN2C(=O)NC3(CCCCC3)C2=O)c1 | 22.3
34 | Cc1ccc(NCc2nnc(SCC(=O)Nc3ncc(C)s3)n2CC2CCCO2)c(C)c1 (stereo not drawn) | 10
35 | CCNc1nc(NCC)nc(ON=C(C)C)n1 | 15.6
36 | Cc1ccc(CNCc2cccnc2)cc1 | 11.4
37 | CCNC(=O)/C(C#N)=C/c1c(N2CCCCCC2)nc2c(C)cccn2c1=O | 5.28
38 | Cc1noc(C(=O)N2CCN(Cc3ccc4c(c3)OCO4)CC2)c1Cl | 6.19
39 | COc1ccc(CN(Cc2ccccn2)S(=O)(=O)c2ccc(-n3cnnn3)cc2)cc1 | -38.8
40 | COCc1cc(=O)[nH]c(N2CCN(C(=O)c3ccco3)CC2)n1 | 12.7
41 | CCN(C(=O)Cn1cnc2cc([N+](=O)[O-])ccc2c1=O)C1CCS(=O)(=O)C1 (stereo not drawn) | 6.06
42 | CCc1cc2c(NCC3CCCO3)ncnc2s1 (stereo not drawn) | 3.89
43 | Cc1cc(C)n(C(=O)c2cc3sccc3[nH]2)n1 | 14.5
44 | C#Cc1ccc([C@H]2C=C(C(=O)N3CCN(Cc4ccccc4)CC3)O[C@@H](OCc3ccc(CO)cc3)C2)cc1 | 2.34
45 | O=C1NC[C@@H](Cc2cccc3ccccc23)N(CCc2cc(C(F)(F)F)cc(C(F)(F)F)c2)C1=O | 16
46 | CCOc1ccc(NC(=O)C[n+]2ccccc2)cc1.[Cl-] | 15.1

Row | SMILES | hERG current change (%, negative = inhibition) at 1uM [%]
47 | CCOC(=O)c1c(C)nc2ccc(C)cn12 | 7.97
48 | CC(=O)c1ccc(OCCCC(=O)Nc2cccc(S(=O)(=O)N3CCCCC3)c2)cc1 | -3.68
49 | O=C1NCCN(C(=O)CCc2nnc(-c3ccsc3)o2)C1c1ccc(F)cc1 (stereo not drawn) | -9.88
50 | COc1nc(N)nc2nc[nH]c12 | 6.99
51 | Cc1cc(C(=O)Nc2ccccc2Cc2ccccc2)no1 | 0.147
52 | CCCC(C(=O)OCCN(CC)CC)(c1ccccc1)c1ccccc1.Cl | 2.9
53 | COc1ccc(-c2c(C3=CCCCC3)oc3ccc(-c4ccc5c(c4)OCO5)cc23)cn1 | 16.2
54 | COc1ccc(F)cc1S(=O)(=O)N1CCN(Cc2ccc3c(c2)OCO3)CC1 | 6.52
55 | COc1ccc(S(=O)(=O)NNC(=O)C2CC(c3cccnc3)=NO2)cc1 (stereo not drawn) | 18.3
56 | Cc1cc(C(=O)COC(=O)CN(C)S(=O)(=O)c2ccc(Cl)cc2)c(C)n1CC1CCCO1 (stereo not drawn) | 6.03
57 | Cn1c2ccccc2c2cc(C(=O)OCC(=O)N3CC(=O)Nc4ccccc43)sc21 | 12
58 | COc1ccc(Oc2cc(NN3CCCCC3)c([N+](=O)[O-])cc2[N+](=O)[O-])cc1OC | 3.74
59 | COc1ccc(-c2cnn(C3CCS(=O)(=O)C3)c2N)cc1 (stereo not drawn) | 15.8
60 | CC(C)Oc1snc(Cl)c1C(N)=O | 14.9
61 | COc1ccccc1CC(NC(C)=O)C(=O)NC1CCN(C(=O)Nc2ccccc2F)CC1 (stereo not drawn) | 24.1
62 | NC(=O)c1ccc(-n2nnnc2SCc2ccccc2)cc1 | 15.6
63 | N/C(Cc1ccc([N+](=O)[O-])cc1)=N\OC(=O)COc1ccccc1Cl | 7.96
64 | Cc1ccc2cc(CCNC(=O)c3ccc4c(c3)OCO4)c(=O)[nH]c2c1C | 4.03
65 | CCOC(=O)C1=C(N)N(c2ccccc2Oc2ccccc2)C(=O)C1 | 10.2
66 | O=S(=O)(CCc1nc2ccccc2o1)c1ccc(Cl)cc1 | 7.52
67 | O=c1ccn(Cc2ccccc2)c(=O)n1Cc1ccccc1 | -1.57
68 | COc1ccc(N2CCN(C(=O)CSc3ncnc4scc(-c5ccc(C)cc5)c34)CC2)cc1 | 8.4
69 | CCOc1cc(-c2nc(C)c(C(C)=O)n2O)ccc1OCC(=O)Nc1ccc(F)cc1 | 3.55

Row | SMILES | hERG current change (%, negative = inhibition) at 1uM [%]
70 | O=C1C2C3C=CC(CC3)C2C(=O)N1c1nccs1 (stereo not drawn) | 10.1
71 | CC(C)(C)C(=O)CSc1nc(N)cc(=O)[nH]1 | 14.2
72 | Cc1nn(Cc2ccc(C(=O)NN)cc2)c(C)c1Cl | 12.7
73 | NC(=O)c1ccnc2c(O)cccc12.O=C(O)C(F)(F)F | -1.81
74 | CC(=O)NS(=O)(=O)c1ccc(NC(=O)c2cc(-c3cccs3)nc3ccccc23)cc1 | 13.3
75 | Cc1ccc(NC(=O)CCCC(=O)OC(C)C(=O)c2ccccc2)cc1 (stereo not drawn) | 7.54
76 | COc1ccc2c(c1)C(=O)N(c1ccccc1)C(=O)C2 | 9
77 | c1ccn2c(Cc3nnc4ccccn34)nnc2c1 | 5.87
78 | CCCCOc1ccc(C(=O)Nc2ccc(OCC(=O)N3CCOCC3)cc2)cc1 | 20.9
79 | CCOCCCNC(=S)N1CCC(NC(=O)c2ccco2)CC1 | -1.87
80 | CC(=O)Nc1ccc(S(=O)(=O)Nc2ncccn2)cc1 | 0.942
81 | CC(C)CC(CCc1ccccc1)OS(N)(=O)=O (stereo not drawn) | 11.7
82 | COc1ccc(Cc2nnc(SCC(=O)N3CCc4ccccc4C3)o2)cc1 | 3.32
83 | CCn1c(=S)[nH]c2nc3c(cc2c1=O)CCCC3 | 1.12
84 | O=[N+]([O-])c1ccc(/C=C/c2nc3ccc([N+](=O)[O-])cc3[nH]2)cc1 | 13.6
85 | O=c1c(CN2CCN(Cc3ccccc3F)C(CCO)C2)coc2ccccc12 (stereo not drawn) | 4.79
86 | Cc1cccc(OCc2nnc(SCC(=O)O)n2Cc2ccccc2)c1 | 12.7
87 | COc1ccc(C2=CC(=O)C[C@H](c3ccc4c(c3)OCO4)C2)cn1 | 14.8
88 | COc1ccc(N2CCN(CCCNC(=O)c3ccc(CS(=O)(=O)c4ccc(Cl)cc4)o3)CC2)cc1 | -71.2
89 | CC(C)CC(=O)NC(=S)Nc1ccccc1C(=O)Nc1ccccc1 | 12.1
90 | C/C(=N/NC(=O)c1ccc(-c2ccccc2)cc1)c1cccc(O)c1 | 14.4
